# Source: article PMC10668032
# Some of the results follow. At the low end of the ranking the order means little.
# Biological target: SIX1 homeodomain (reference allele) (UniProt Q15475)
# Assay: universal protein binding microarray
# Settings: Universal all-10-mer PBM (8x60K, AMADID 030236), 300 nM GST-tagged protein, Alexa Fluor 488 anti-GST; buffer, salt, pH and temperature not stated; high values mean tight binding; most listed sequences are background and not binding sites; double strand, one strand shown
row,Sequence,binding signal [E-score]
1,TTAAATAA,0.0113
2,CCAGTAAA,-0.0212
3,AATGTACG,-0.218
4,GGGCAAAC,-0.0994
5,CAGGTTCG,-0.0133
6,CATATGGG,0.179
7,CGTACTTC,0.0949
8,ACAGTAAG,-0.0784
9,CGAGCACC,-0.0309
10,TCCAGAGA,-0.0102
11,GAGTAACA,-0.154
12,AGGTATAA,0.242
13,GACAGACA,-0.0859
14,GAATTGGC,-0.0893
15,ATAACCTA,0.0152
16,CGGAACCG,-0.186
17,CCATATAG,0.211
18,ATTAAAGC,-0.014
19,ATCTAAGG,0.179
20,ACTGGTCT,-0.108
21,AATCCTGG,-0.109
22,AACACTTG,-0.157
23,CCATGGAC,-0.0519
24,TCGTCGCA,-0.0806
25,CGATTCCC,0.0811

row,Sequence,binding signal [E-score]
1,AAAGTCTG,-0.29
2,ACGTGCCT,-0.189
3,ACGAGAAT,0.0373
4,CTGTAGCA,-0.212
5,CCCCTAGG,0.045
6,ATTATTTG,0.0221
7,TAGGGTGA,0.0709
8,ATGTATGA,0.261
9,CTGTGACA,-0.0932
10,GCCAAGAC,-0.193
11,AATGTGGT,-0.0608
12,CTGCGCAA,-0.153
13,ACCGAAAT,-0.0348
14,CACTAACC,-0.186
15,GTGTTAAA,0.0247
16,AAAGCGGG,-0.231
17,ACTTGATA,0.374
18,AATTAGGC,-0.158
19,CGTTTGGA,-0.0757
20,ACCGGGCT,-0.0186
21,CCAGTTTA,-0.0101
22,TGTGCTAA,-0.124
23,CACTCTCC,-0.00602
24,AACCTAAG,-0.186
25,CGGCGGGC,-0.00443

row,Sequence,binding signal [E-score]
1,GACCTGGA,-0.11
2,CGCGAAGA,-0.128
3,ACTCGTGC,-0.114
4,AGATGTAT,0.338
5,ATTGATGG,-0.0372
6,CCAACAAG,-0.211
7,CCGCTCCA,0.013
8,CGCCGCCG,-0.219
9,AGTCCCCA,-0.142
10,CTTGATAA,0.0645
11,AGGGAAAG,-0.0705
12,GCCACGGA,0.0257
13,GTGAGCTA,0.0498
14,AACGCATC,-0.0661
15,AAGCGGAT,0.306
16,AGGGCTAA,-0.0541
17,CAAGTGAA,-0.106
18,GGCGGGAC,-0.236
19,AGCGGTGA,-0.129
20,TATTCGAA,-0.0987
21,CGGTTATA,0.135
22,AACAATAA,-0.085
23,ATGCGTAA,-0.136
24,ACTTCTTG,-0.0674
25,TAATAGCA,0.0353

row,Sequence,binding signal [E-score]
1,GCGCGCAA,-0.0161
2,TGTGCAAA,-0.306
3,CTCGTGCA,0.0718
4,ACTTTGAA,-0.281
5,TATGTGGA,-0.0388
6,AGCTCCAG,-0.131
7,CATGTTCG,-0.121
8,AATTGTAG,-0.169
9,CGTCATCC,0.13
10,CGTCTAGA,0.0754
11,GATATGAC,0.357
12,GATAGATC,0.347
13,AAGACGTA,-0.00305
14,CTCATCTC,0.158
15,CACGGTTA,-0.141
16,GATCGCAC,0.253
17,GGACTTAA,-0.175
18,ATTGAGCA,-0.04
19,AGAGTTGC,0.0823
20,GGGCCGTA,0.15
21,CAGATCGG,0.296
22,CAGTGACA,0.0801
23,GCCACCAC,-0.165
24,CCGATCCC,0.412
25,CAGCTTGC,-0.231

row,Sequence,binding signal [E-score]
1,ATTCTCGA,-0.000975
2,ACTTGAAC,-0.0757
3,CCGCGAGG,0.126
4,AATATAGG,0.0555
5,CGACTACG,-0.245
6,CGAAGGGC,-0.076
7,AGAGCTCA,-0.0753
8,CCTGGATC,0.251
9,CTTCAGTA,0.0153
10,CCGATCAC,0.346
11,GGGTTAGA,0.16
12,CCGTTTCG,-0.167
13,AGGCGTAG,-0.12
14,GCCCGGGA,0.144
15,GGCGCCTA,-0.233
16,CCAAGCCG,0.114
17,ATACGCTC,0.245
18,ATTCGCTC,-0.139
19,CTGACCGA,0.0848
20,CTCACATA,0.065
21,ATGAATCG,0.0185
22,CTGGACAC,0.0465
23,TATAGCCA,0.224
24,CCCCTTAA,-0.0594
25,GAAGCTAC,-0.139

row,Sequence,binding signal [E-score]
1,TGTCAACA,0.00955
2,AAGTCATT,-0.348
3,GAATATCC,0.276
4,CTCCCGCC,-0.158
5,ACGGTCGG,-0.0321
6,GCTGTACA,-0.107
7,AGGGACGG,-0.0874
8,GTTGCCCA,-0.15
9,CAACTTAC,-0.118
10,AGTCTTTA,-0.347
11,CCGAGAAC,-0.0412
12,ACGCGCAC,-0.219
13,ATTATAAC,0.0311
14,GAAGGCGA,-0.114
15,AGATACCA,0.422
16,ATCAAGCC,0.0374
17,GTGAAATA,0.159
18,CCCAGTCC,-0.0155
19,GAATATGC,-0.104
20,CTTGTTAA,-0.153
21,TCCACGCA,-0.0189
22,AAACTATC,0.0862
23,ACGGATTG,0.179
24,ATAAAGTA,0.104
25,CCCTGATA,0.36

row,Sequence,binding signal [E-score]
1,GTGCAATA,-0.0945
2,ACGTGCCC,-0.111
3,CACGCCTA,-0.211
4,AGAATAGC,-0.0838
5,CACTTAGG,0.00877
6,AGACGGGC,0.14
7,AGCGCAGC,-0.211
8,CTCAGAAA,-0.0957
9,AGTTAAAC,-0.0742
10,GACAAAAC,-0.255
11,AGCACTAA,-0.0968
12,GAAGACCC,-0.19
13,CCGTGTTC,0.155
14,CCCTAGGG,-0.134
15,CAACTGAC,-0.201
16,ACGTACCC,0.143
17,AGCGTCTA,-0.0463
18,AAAATGGA,-0.0815
19,CTCCTGCC,-0.0145
20,GCCCCAGA,-0.0688
21,CCAGGGAA,-0.278
22,GAGCGGAA,-0.0988
23,TCCACAGA,0.0821
24,AGCTTCAA,-0.115
25,CAGGGGCG,-0.017

row,Sequence,binding signal [E-score]
1,CCCGATAG,0.205
2,CCCTCAAG,0.0889
3,CCGTGAGC,-0.0849
4,AACGTTCT,-0.106
5,CCCAGTTA,0.122
6,AACGGGCT,-0.225
7,CGCCCGCA,-0.0595
8,CGCCCTCC,-0.00369
9,CGGATCTC,0.342
10,AGGCGGGA,0.0418
11,CCTAATTA,-0.129
12,CCCCCCCA,0.0163
13,CCGTCAAC,-0.19
14,CTGGCCCC,-0.0179
15,CAAAGTAA,-0.229
16,ACCGGCCT,-0.217
17,GTTGTCCA,-0.212
18,ACTTAGAT,0.164
19,ACAGGTAC,-0.0272
20,GTTGGTGA,-0.115
21,TATAGCAA,0.0737
22,AGTCTATA,0.0401
23,GCCAAACA,-0.257
24,ACCTTGCA,0.0625
25,GTGCAAAA,-0.0971

row,Sequence,binding signal [E-score]
1,TCGTCTAA,-0.0542
2,ACGGACGC,-0.321
3,ACGTTGCA,-0.154
4,GGGAGAAC,-0.0801
5,ATAACTTA,-0.021
6,GCCTCGAC,-0.105
7,CTACAGCC,-0.173
8,ATACAAAG,0.0766
9,GCACTGCC,-0.162
10,AGAGCGCA,-0.0695
11,AGCTTATC,0.0649
12,CGTACGGC,-0.00038
13,GGGATCAC,0.445
14,GTACTCAC,-0.0158
15,ACGGCTCA,0.128
16,ATTCCGGG,0.0498
17,ACTATATC,0.367
18,ATGGAATA,0.171
19,AAAGTTCC,-0.343
